# Measurements: the supplement of paper PMC3334620
# The full ranking holds about 33,000 sequences; the median of “E-score (-0.5 to 0.5)” is about -0.01, and the highest 2% start at about 0.26. Some of the results follow.
# Biological target: Ste12 (UniProt P13574)
# Assay: PBM E-score (8-mer binding enrichment) (E-score (-0.5 to 0.5)); higher = stronger / more preferred TF binding; most listed sequences are background and not binding sites
# Conditions: protein concentration: 200 nM; construct: GST-DNA-binding domain
# Summary of the method: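 Full-length yeast transcription factors or their DNA-binding domains, GST-tagged and expressed with PURExpress, were applied at about 100-200 nM to universal all-10-mer Agilent arrays. These arrays had been made double-stranded by primer extension on fresh or once-stripped slides. Detection used fluorescent anti-GST, normalisation used masliner, and E-scores for ungapped eight-base words pooled with reverse complements came from the Universal PBM Analysis Suite.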
row,Sequence,PBM E-score
1,CCCTCAAG,-0.207
2,CAAAGAAC,0.147
3,ACCTCAAC,0.0358
4,CCATCAGA,0.0673
5,GTATAGAA,0.0347
6,AGTGATCG,-0.0719
7,ATGAACGG,0.0221
8,CTAGCGTC,-0.154
9,ACTGTATA,0.074
10,GGGTGAGA,-0.0699
11,CAGAAATG,0.0384
12,CGGTTCAG,-0.123
13,ACGCGATG,0.032
14,CCAGAAGA,0.0259
15,CCTTTCAA,-0.0319
16,GCGCAGAC,-0.168
17,CTCCCGAC,-0.102
18,AAGGCTTC,-0.146
19,ACAGCCCC,0.0486
20,CCTACAAG,-0.00719
21,GAGAGATA,0.132
22,ATGATAGA,0.159
23,CGACTCTA,-0.0794
24,CCCTGACC,0.00902

row,Sequence,PBM E-score
1,CACCACAG,-0.187
2,ACCAAACA,0.137
3,ACAGTAAT,0.1
4,TAAAATAA,0.269
5,CGGACTTC,-0.111
6,GCTCGACC,-0.107
7,TCGGTTCA,-0.136
8,CACCTATC,0.0217
9,CTACCGGA,-0.198
10,GGACAGTA,-0.00625
11,CACCTGAA,0.0275
12,CTGCTTTA,0.206
13,ATTCTGCG,-0.0262
14,AATCTGGC,-0.102
15,GATGCTCA,-0.113
16,AACGAGCG,-0.0261
17,AAGTCGCG,0.0702
18,GGAGTGGA,-0.114
19,CAACCTAA,0.0543
20,GAAAGGCA,0.0587
21,CCCTGGTA,-0.2
22,GTCGACGA,-0.0374
23,ACGGCGAA,0.0954
24,ATCTGTAC,0.0717

row,Sequence,PBM E-score
1,CATGAAAC,0.484
2,TACGTCCA,-0.111
3,AAATAACT,0.201
4,CATTAAGG,0.0285
5,CGACACCG,0.0188
6,AGCTATGG,0.0157
7,ATACCATA,-0.0694
8,ACGCCCGT,0.132
9,CGTTGAGC,-0.244
10,TGGACGAA,0.0406
11,CTGGTGCC,-0.174
12,AGAGTAGG,-0.12
13,ACTCTTGC,-0.101
14,ATACCCGA,0.112
15,GGGGAACA,-0.102
16,CGCTTCAC,0.0273
17,CTCCCGCC,-0.0719
18,AGCAGAGG,-0.134
19,ACGTTCTC,0.0364
20,CGACCCAA,0.138
21,GAATTGTC,0.00878
22,ATCTGAGG,0.0822
23,CCTCGCAA,0.18
24,GCGCGCCA,0.1

row,Sequence,PBM E-score
1,ACATCTAA,0.114
2,AACCCTCG,-0.0591
3,TTATTCAA,0.156
4,AGGGGCGA,0.165
5,GTGGTTTA,0.135
6,CAGAGCGA,-0.0734
7,AGCAGTAA,0.0857
8,GCATACGC,-0.153
9,AGTCAAAT,0.089
10,ATGATAGG,-0.124
11,AGGGTCCA,-0.13
12,ACGGTCAG,-0.0237
13,ACTCTATG,-0.0969
14,CCCGTAAC,0.113
15,TGAGGCAA,0.111
16,AGGAAACG,-0.105
17,CACCCTTC,-0.0609
18,TTACATAA,0.193
19,TCCGCGGA,0.0157
20,CAACAAAA,0.211
21,ACATTGAG,-0.0443
22,GACTTAGA,-0.272
